# Data from the supplement of paper PMC11417369.
# ± gives the standard deviation of the averaged measurements. Some of the results follow.
# Tested on: PfAP2-EXP AP2 domain (GST-tagged)
# Assay: gcPBM binding intensity (ln(normalized median fluorescence intensity)); higher = stronger DNA binding
# How it was run: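 The highest Masliner-normalised natural-log median intensity across replicate spots of either probe orientation is reported as binding intensity. GST-tagged P. falciparum DNA-binding domains expressed in E. coli were applied for 1 h to an Agilent 4 × 180k array of primer-extended double-stranded 36-bp intergenic genomic probes plus negative controls, and bound protein was detected with Alexa488 anti-GST antibody and scanned at 488 nm.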
row,Sequence,gcPBM binding intensity (ln)
1,AAAATAATATATAATTGTACTTTTTTTTTATATATA [XGTACX_site6093],8.3 ± 0.37
2,ATTATTACACAACGTTGTACATTTCAATATTTTTAT [XGTACX_site5096],9.05 ± 0.47
3,TCCTCTTCAATATATATATATTATAAATAAATAAAT [CACACA_negctrl_site1756],8.62 ± 0.47
4,TTTTTTCTTAAAATTTGTACATAGTGCAATTTTTTT [XGTACX_site5509],8.21 ± 0.29
5,TTTCTTTTTTTTTAATGTACTTTTTTTATAAAAGGT [XGTACX_site5688],8.59 ± 0.39
6,TGTACATATATATATATAATAATAGTTATGTTTATT [CACACA_negctrl_site1474],8.36 ± 0.31
7,TTTTTTTATAGCTAAACACACATAAGAATATATGTT [CACACA_site1099],8.59 ± 0.61
8,TATATATGTGTATAGAGTACACGTTTTTTTTAATAT [XGTACX_site3128],8.14 ± 0.11
9,AAAAACCTGAACTGTGCATGTCATACTTTTACTTTT [TGCATGCA_site73],8.85 ± 0.31
10,TGTATAAACTTTACGTGTACATGAATAATCTATAAT [XGTACX_site3801],8.62 ± 0.45
11,TAAATACATCTATGCACACAAAAAAATATATATTTT [CACACA_site5027],8.57 ± 0.53
12,AAAATAATTTTATAAGTGCAAAATAGCTTATTTATA,8.47 ± 0.18
13,TAATCATTTTAGCTTACACACAAAATTTTGTTATAA [CACACA_site2939],8.48 ± 0.41
14,TTTATAAATTCTCTTTTTAAAAAATATTTTTATACT [CACACA_negctrl_site427],8.31 ± 0.45
15,AAAATGGAACTAGGAATAATATAAGAAGATAAAAGG [XGTACX_negctrl_site347],8.87 ± 0.47
16,TTGTACAAAAATAATGCACACTATATCAAGTTTTTT [CACACA_site5898],8.66 ± 0.028
17,TATACGTATTACAGAGTGCAATAAACAGTATATATT,8.78 ± 0.3
18,GTAAAACAGATTTACAGTACACATGTGTTATGTTTT [XGTACX_site2933],8.7 ± 0.38
19,ATAAAAATATTTGAATGTACTTATAAGATATATATA [XGTACX_site4257],8.63 ± 0.35
20,TTTATATATAAATAATGTACAAAAAATTTTAAAAAG [XGTACX_site7990],8.9 ± 0.29
21,TTTTTATATTTTATTATTTTTTTTATATAAAAAATT [CACACA_negctrl_site601],8.62 ± 0.42
22,TATTTTAATTTTTGTTGTACGCAAATGTGAGGGCAT [XGTACX_site4663],8.68 ± 0.43
23,TAAACCAAAAAAAGTAGTACAAATATTATAAAAAAA [XGTACX_site8497],8.69 ± 0.39

row,Sequence,gcPBM binding intensity (ln)
1,GATGTATTCATACATGCACACGTACATATTTAAATA [CACACA_site9299],8.84 ± 0.32
2,TGTTTATTTATTTGTGTGCACTCAGATTATATTATA [GTGCAC_site9510],8.95 ± 0.2
3,AAATCGTGCACGGACACATGCAGTAGCCGAGAATTA [TGCATGCA_site733],9.08 ± 0.34
4,AGGTAGAAAAAAGACACACACATTAGATATTTATAT [CACACA_site6313],8.73 ± 0.36
5,GTTCATAAATTAAACACACACACACGGCTGGATACC [CACACA_site7545],8.86 ± 0.47
6,GTTCAAATTATTATGTGTACTAAAGAATATTTTAAA [XGTACX_site3166],8.29 ± 0.28
7,CTTTATTTTTTATACACACACAATATGTATTTATAT [CACACA_site5879],8.83 ± 0.41
8,TCTATTTTTTATATGGTGCATTGTTCTTATTAATAT [GTGCAC_site9392],9.1 ± 0.28
9,AATTAATTTATGTTACGTACATAAGTATTATATTTT [XGTACX_site388],8.62 ± 0.2
10,AGGAAAAATAATTATTCACACAATAAATATATTTGA [CACACA_site5824],8.33 ± 0.48
11,AAATGTAATATAAATAGTACATATTAAATAAAATTA [XGTACX_site6917],8.31 ± 0.27
12,ATGTGCACATATAAAAGTACACGCACATATATATAT [XGTACX_site1238],9.82 ± 0.028
13,TGCACAAAGTTATGCACACACCTAAAATTAATTTTT [CACACA_site7385],8.995 ± 0.007
14,TATACACATATATACACACACATATATAAATAAATA [CACACA_site7579],8.55 ± 0.35
15,GTACATAGGTATAGCACACACAAATGTAGGTATTTT [CACACA_site4049],8.46 ± 0.28
16,ATTCTTTATATGCATACACACCTAATATAGGGACCT [CACACA_site6830],9.04 ± 0.6
17,TTATAATATGTATACACACACATATATAGATATATA [CACACA_site7159],8.54 ± 0.4
18,AAAAAAAAAAAAAAAACACACATAAAAATATAATAA [CACACA_site3855],8.53 ± 0.33
19,ATTATATATAATATAGTGCATGTAAAAAATAAAACA,9.23 ± 0.33
20,AAGAATATTATAAACACACACTTTATAAAGAATTAT [CACACA_site4241],8.51 ± 0.52
21,TATATAATTGTCTTCACACACACATATATATATATA [CACACA_site2744],10 ± 0.3
22,TATTTTATTTGTATATTCATTTGTATAATATAAATA [TGCATGCA_negctrl_site267],8.21 ± 0.39
23,AAAATAATAAAAAGGGGTACAAAGAAACAAATATAA [XGTACX_site296],9.03 ± 0.53

row,Sequence,gcPBM binding intensity (ln)
1,AATTTATTTTTTTGATGTACATACAATTTATCACAA [XGTACX_site5936],8.79 ± 0.42
2,TTGATGTTGGTAGGATGTACGGTACCGGTAGTATTT [XGTACX_site6642],8.78 ± 0.58
3,AAGGAAAAGTAAAGAAGTACTGTACCGCCAAAAAAA [XGTACX_site2607],9.18 ± 0.57
4,TATGTGCATATAAACTCACACATTGTATATTACATG [CACACA_site6106],8.75 ± 0.23
5,ATATATGTAGATATATGTACATATATAGGTAGATAT [XGTACX_site7589],9.15 ± 0.42
6,ATAAAATAACACAACGTTGACAAATTTGGATGACTC [XGTACX_negctrl_site324],9.18 ± 0.55
7,TTTATTAAAATATTCTCACACACCAAAATATGTATG [CACACA_site932],8.33 ± 0.24
8,ACTTTAGAAATAGAGGTGCTATTTTTATTACCACAC,8.47 ± 0.22
9,AAAAATTTATTTAAAAGTACATAAAATAAAGGTGGA [XGTACX_site7591],8.87 ± 0.4
10,TATTACATTATATAAACATGCAAAACTATATATTAT [TGCATGCA_site601],8.63 ± 0.45
11,ATTTTAGAATTTAATACACACAAAAAAAAAAAATTA [CACACA_site3704],8.38 ± 0.47
12,GGAAAATATGTTTGTGTGCACAGCTAGCTATTTGTA [GTGCAC_site9637],8.84 ± 0.31
13,TTTTTTTTTTTCAAGCGTACAAAAAATATATTTAAA [XGTACX_site5327],8.46 ± 0.35
14,AATTTTTTTTGTCTCTGTACTTATAAAATATATATG [XGTACX_site4742],8.72 ± 0.42
15,AAATAAATTGATTCAACACACACATATGTAGGAAGT [CACACA_site9068],8.97 ± 0.33
16,CACCCACACCAACACACACACATATATATATATATA [CACACA_site362],10.4 ± 0.2
17,TATATATGGGTAACCTTTTTTTTTTTTTTTCGAACA [CACACA_negctrl_site1303],8.22 ± 0.59
18,AAAAAAAATTTTAATTGTACAAAAAAAAAAAATATA [XGTACX_site2259],8.42 ± 0.41
19,AAATAACAAATTTTTAAAATGTATATATATATATAT [TGCATGCA_negctrl_site219],10.2 ± 0.74
20,ATTCATAATTTATTATGTACATATATATAATATATT [XGTACX_site1711],8.46 ± 0.35
21,AATAAATTGGTATGTTGTACAAAGTAACCATCGATT [XGTACX_site2823],8.69 ± 0.47
22,ATATCATGTTAAGATTGTACATATATATAATATATA [XGTACX_site7626],8.35 ± 0.36
23,TAAAACCTTTAAAATACATGCAGCATATATAAGTAA [TGCATGCA_site181],8.96 ± 0.35

row,Sequence,gcPBM binding intensity (ln)
1,AAGGATATAACATACACACACACACCCATATATATA [CACACA_site4142],8.81 ± 0.2
2,AAAGAAATTATTTGTTGTACATATGTTATTTTTTTT [XGTACX_site7570],8.45 ± 0.53
3,TGCAATTTAATATGAGTGCATATATTGAGAAAATAC,8.81 ± 0.19
4,TCACTTAATATTTAATGTACATAAGGTTCTTGTGCC [XGTACX_site1822],8.51 ± 0.46
5,ATATTTTTTACAAATTGTACATTTTTACAATTATTA [XGTACX_site7496],8.59 ± 0.35
6,TAACCTAAAATAACTACACACACATAAAAAAAAAAA [CACACA_site8807],8.57 ± 0.47
7,TATAAATTAAAATGTGTGCACTAAATTGAAATAGAA,9.04 ± 0.099
8,ATATATATATATAATAGTACATATATTTTTATTGGT [XGTACX_site711],9.87 ± 0.28
9,ATTATTACATTTTTATGTACATATCAAATTTATACA [XGTACX_site7332],8.61 ± 0.31
10,TTAACTTAAGGAGAGTGTACAAATAATAAAATATCT [XGTACX_site4118],8.78 ± 0.43
11,TTAAAATATGAATAATGTACAAGAAATTTTATTAAT [XGTACX_site6314],8.47 ± 0.32
12,AAAAAAAATTTATGGGGTACATATTATAATATTATA [XGTACX_site3395],8.8 ± 0.56
13,TTATATAACATTATTTGTACATATAAAATATGGATG [XGTACX_site8526],8.3 ± 0.28
14,ATGTATGAATTACATAGTACATAAGAAAAAATGAAG [XGTACX_site5942],9.04 ± 0.38
15,GTAGTGGTTGAATATACACACATATATAAATAAATA [CACACA_site7282],8.56 ± 0.45
16,GTTTTCATCCAAAAAAGTACATTTATTTTTATACGA [XGTACX_site1039],8.45 ± 0.41
17,AAATATAAAGTGCACACACACAAAAAAAGAAAAAAA [CACACA_site6452],8.73 ± 0.35
18,GGAAAATCTTTATAATGTACATTATGATTATATAAT [XGTACX_site6256],8.71 ± 0.76
19,TTATTTTTTTTAAATTGTACAAGGAACAGTGAAAAA [XGTACX_site4380],9.02 ± 0.34
20,TTTGTGTGTACGCGTGTGCACATTTTTTTTTTTTTT,8.725 ± 0.021
21,TAAATGTCTTCAATGAAGTGGAAATGCTGTTATATA [CACACA_negctrl_site1155],8.45 ± 0.51
